This note sets out measurements from paper PMC6212790.

The list shows a part of the results. At the low end of the ranking the order means little.

For this assay, the target named is T1, GST-Rok-C97-191 (UniProt O34857).
T1 sequence: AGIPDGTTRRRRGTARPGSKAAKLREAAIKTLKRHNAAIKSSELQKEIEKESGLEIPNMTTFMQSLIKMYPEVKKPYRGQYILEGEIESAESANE
Description: protein binding microarray.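 Further: rank score from −0.5 (least bound) to 0.5 (best bound).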 The following applies: Rok is a gene silencer of Bacillus subtilis; high values mean tight binding; most listed sequences are background and not binding sites; double strand, one strand shown.
As for ATCAAACA, the binding signal was 0.0963 E-score.

Take CCATACGC: the binding signal was determined as 0.0514 E-score.

In the case of AGATCGCT, the binding signal turned out to be 0.152 E-score.

Turning to ATGGGGAA, the binding signal stood at 0.0488 E-score.

Turning to CGTCTTGC, the binding signal was -0.0463 E-score.

In the case of AAATCGCT, the binding signal was 0.244 E-score.

TGCTGTAA yielded a binding signal of 0.0575 E-score.

ACTGAGAG: the binding signal is -0.0408 E-score.

As for AGCTGACC, the binding signal was -0.219 E-score.

In the case of AGCCTGAA, the binding signal is -0.0948 E-score.

Turning to CCAGGAGC, the binding signal is -0.182 E-score.

AGCGCGCC: the binding signal is -0.355 E-score.

Regarding AGGTACCC, the binding signal was -0.0909 E-score.

TGCGTGAA had a binding signal of 0.0412 E-score.

GATAAGTA registered a binding signal of 0.238 E-score.

Turning to CAGCCGTC, the binding signal was -0.113 E-score.

The sequence AGATTGGA gave a binding signal of 0.155 E-score.

Turning to CTCGTACA, the binding signal is -0.101 E-score.

With GCCATAGA, the binding signal is 0.036 E-score.

For TCGTGGCA, the binding signal is -0.199 E-score.

With GCTCACAC, the binding signal came out at 0.0636 E-score.

On to GACGCATA, for which the binding signal was -0.112 E-score.

Consider AGATGTGA, for which the binding signal is -0.144 E-score.

GAGAGAGC: the binding signal was -0.17 E-score.

In the case of ACTTCCCA, the binding signal was -0.055 E-score.

AGACGGGA: the binding signal is -0.224 E-score.

With ACGTGTCC, the binding signal is -0.0293 E-score.

As to AGCCGGAT, the binding signal worked out at 0.00464 E-score.

With CGCATGAG, the binding signal is -0.138 E-score.

Regarding CGATCCAC, the binding signal was -0.181 E-score.

In turn, GGGATTAA returned a binding signal of 0.0675 E-score.

Take AGACCGGG: the binding signal was -0.236 E-score.

As for CACGTTCA, the binding signal is -0.0436 E-score.

On to CTCCATCC, for which the binding signal is -0.191 E-score.

Take GTCGACAC: the binding signal was -0.208 E-score.

For CCTCTAAA, the binding signal is -0.0294 E-score.

With CCGGCTCC, the binding signal is -0.22 E-score.

For CCATACAG, the binding signal is -0.209 E-score.

For the sequence GCCTTATA, the binding signal is -0.00735 E-score.

As to GAACGAGC, the binding signal was -0.332 E-score.

Sequence ATGGTTAA showed a binding signal of 0.22 E-score.

For ACGCCAAT, the binding signal was -0.095 E-score.

Consider CCAGGTCA, for which the binding signal was -0.0861 E-score.

AAGTTGCT: the binding signal came to 0.224 E-score.

Consider CAGCAAAC, for which the binding signal is -0.0196 E-score.

On to AATGCCAA, for which the binding signal is -0.104 E-score.

In turn, GGGGTGAA displayed a binding signal of 0.0222 E-score.

With CCCGCGGC, the binding signal was -0.229 E-score.

As for ACACTCTA, the binding signal was -0.0518 E-score.

The sequence AAAATGTC had a binding signal of 0.0401 E-score.

Regarding ATCAATAG, the binding signal came out at 0.219 E-score.

With GTGTGTGA, the binding signal is -0.228 E-score.

Take TGTTAAAA: the binding signal was -0.0158 E-score.

On to AGCAATAC, for which the binding signal was 0.171 E-score.

On to AGCTGAGC, for which the binding signal is -0.202 E-score.

With CAGAATTC, the binding signal turned out to be 0.175 E-score.

In the case of CTCTTGAC, the binding signal was -0.129 E-score.

Turning to ACTAGGAA, the binding signal is 0.187 E-score.

As to CTTTCCTA, the binding signal turned out to be 0.114 E-score.

In turn, CCGAAATA showed a binding signal of 0.224 E-score.

ACTAGGTC: the binding signal worked out at 0.0775 E-score.

Consider GCGTCACA, for which the binding signal was -0.207 E-score.

In turn, ATTAGCGC registered a binding signal of 0.208 E-score.

AGTATATG yielded a binding signal of 0.264 E-score.

On to CCACGAGC, for which the binding signal was -0.218 E-score.

As for AGAGGCAC, the binding signal was -0.177 E-score.

In the case of AAGTTCCT, the binding signal is -0.112 E-score.

With GAATCCCC, the binding signal is -0.29 E-score.

Take CGGTGGCC: the binding signal is -0.149 E-score.

On to CTTTCTCA, for which the binding signal was -0.12 E-score.

Regarding CCTATTGA, the binding signal is -0.0399 E-score.

As to CGGTATAA, the binding signal came to 0.272 E-score.

In turn, AAAAGAGA came in with a binding signal of 0.147 E-score.

On to GTCAGTTA, for which the binding signal came to 0.104 E-score.

The sequence CTTGTAAC came in with a binding signal of 0.158 E-score.

With AGTTCTTA, the binding signal came to 0.00493 E-score.

With CGTCGACC, the binding signal is -0.209 E-score.

In the case of CCTATAGG, the binding signal is -0.00329 E-score.

On to AACCTTCA, for which the binding signal is -0.0626 E-score.

In turn, AGACTTTA registered a binding signal of 0.0153 E-score.

On to TATGCTGA, for which the binding signal is -0.00907 E-score.

In turn, GATCACAC showed a binding signal of 0.00567 E-score.

As to GCGAGGCC, the binding signal is -0.33 E-score.

Regarding GGGCTGAC, the binding signal is -0.156 E-score.

For GGGTAGAA, the binding signal was found to be 0.384 E-score.

Turning to GTCACGGA, the binding signal was -0.0778 E-score.

Take CACTGATG: the binding signal was -0.206 E-score.

Regarding CACGACGG, the binding signal was -0.104 E-score.

As for AGCGAGAC, the binding signal was -0.159 E-score.

With ATCTCCGC, the binding signal was -0.132 E-score.

Consider AAACCATC, for which the binding signal came out at 0.00757 E-score.

Regarding CGTTCGAC, the binding signal was -0.192 E-score.

GTACGGGA came in with a binding signal of 0.104 E-score.

Sequence ATAGATAC displayed a binding signal of 0.357 E-score.

CGAAGGCG: the binding signal was -0.0617 E-score.

In the case of ACGGTGCA, the binding signal is -0.0507 E-score.

TATCGCCA registered a binding signal of 0.161 E-score.

As to ACCTAAAC, the binding signal is -0.0158 E-score.

Sequence CAGTAGGA displayed a binding signal of 0.144 E-score.

As for ACCACTGG, the binding signal was -0.195 E-score.

Sequence GGTAACCA yielded a binding signal of 0.00545 E-score.

For AACCATCC, the binding signal was -0.0571 E-score.

Consider GAGGGTTA, for which the binding signal was -0.131 E-score.

On to AGGCCGAT, for which the binding signal was -0.0986 E-score.

Turning to CTATCGAA, the binding signal amounted to 0.206 E-score.

Take GAAGTAAA: the binding signal was 0.254 E-score.

As for AATCTTAC, the binding signal worked out at 0.171 E-score.

ATCTTCCG: the binding signal was -0.00237 E-score.

Turning to AATGATGA, the binding signal was 0.00727 E-score.

In turn, AGTAAGAA displayed a binding signal of 0.297 E-score.

Consider CACGCAGC, for which the binding signal is -0.287 E-score.

For TCAGGGAA, the binding signal is -0.18 E-score.

With GCAGTTCC, the binding signal was -0.0226 E-score.

Take CACGGCTA: the binding signal came out at 0.0275 E-score.

As to CACAGGAA, the binding signal is -0.0787 E-score.

For CCCTCATA, the binding signal is -0.021 E-score.

As for CTCAGAGA, the binding signal was -0.0632 E-score.

In the case of CGCGTCGC, the binding signal was -0.188 E-score.

For the sequence CAATGACG, the binding signal was -0.168 E-score.

GACGTACC yielded a binding signal of 0.00655 E-score.

Take ACGTGCGC: the binding signal is -0.256 E-score.

Turning to ATTGGGGC, the binding signal was -0.128 E-score.

CACCGGCC: the binding signal was -0.242 E-score.

Sequence AATATGCA returned a binding signal of 0.245 E-score.

On to CCCTAGCC, for which the binding signal is -0.283 E-score.

GCAGTAAA returned a binding signal of 0.138 E-score.

Sequence ATTGCTCG yielded a binding signal of 0.0332 E-score.

Regarding TAGAACCA, the binding signal turned out to be 0.0922 E-score.

Regarding AATCAGCA, the binding signal is -0.0277 E-score.

For AGCTTCCG, the binding signal was -0.0997 E-score.

On to AGAAGCAT, for which the binding signal is 0.071 E-score.

As for AGCTGGAG, the binding signal was -0.0549 E-score.

Take GCTTTCGA: the binding signal was found to be 0.0291 E-score.

For ATACCATC, the binding signal was determined as 0.0328 E-score.

Take CTGATCAC: the binding signal is -0.00299 E-score.

On to GGTGCCAC, for which the binding signal was -0.197 E-score.

As to CGCGAAGC, the binding signal is -0.239 E-score.

ACGATCGC returned a binding signal of 0.0318 E-score.

CCAAGTGC: the binding signal is -0.191 E-score.

CAGTTGGC: the binding signal was -0.0639 E-score.

Turning to CTAAGAAG, the binding signal was 0.00211 E-score.

For the sequence TACACTGA, the binding signal was -0.0753 E-score.

Regarding AAAGCATG, the binding signal was -0.0182 E-score.

ATAATGAT had a binding signal of 0.177 E-score.

Sequence ACCAAGAA registered a binding signal of 0.0343 E-score.

GTCAGATA had a binding signal of 0.115 E-score.

Regarding GGACATTA, the binding signal was -0.121 E-score.

Turning to GCCATAAA, the binding signal is -0.106 E-score.

ATGCATAC came in with a binding signal of 0.0643 E-score.

Turning to TATGACCA, the binding signal worked out at 0.132 E-score.

Sequence TCTTAGCA displayed a binding signal of 0.0509 E-score.

As for ATGCTGAG, the binding signal is -0.233 E-score.

With CGATTGGC, the binding signal was -0.0407 E-score.

As to GAATGTAC, the binding signal was determined as 0.304 E-score.

As for CGTCCTCA, the binding signal was -0.0889 E-score.

ACTAAGAT came in with a binding signal of 0.236 E-score.

Regarding GGCTAGAA, the binding signal was -0.162 E-score.

For the sequence ACTCCGCC, the binding signal is -0.183 E-score.

For the sequence CGAGGTGA, the binding signal is -0.0936 E-score.

GATCATTA had a binding signal of 0.287 E-score.

As for AATGTGCA, the binding signal turned out to be 0.0594 E-score.

On to GGTCATGA, for which the binding signal was -0.0841 E-score.

Consider GGTCCGAA, for which the binding signal amounted to 0.0575 E-score.

For CAGTTGCA, the binding signal was -0.0955 E-score.

As for ATGAAAGC, the binding signal is -0.0998 E-score.

Regarding GCCGTGAC, the binding signal was -0.151 E-score.

For the sequence CCTACGAC, the binding signal was -0.0164 E-score.

Take CCGCCATA: the binding signal is -0.152 E-score.

Consider GCAAAAAA, for which the binding signal is -0.0414 E-score.

The sequence CCTACTTA had a binding signal of 0.195 E-score.

As for CGATACTC, the binding signal was -0.0843 E-score.

Sequence AAACCTTT showed a binding signal of 0.12 E-score.
